Data taken from the antibiotic and cytotoxicity screens of Wong et al. (2023).
The other results are listed elsewhere or left out.

How the values were obtained:
HSkMC = human skeletal muscle cells; assay: cytotoxicity call (relative viability < 0.9); conditions: 10 µM
HepG2 = assay: cytotoxicity call (relative viability < 0.9); conditions: 10 µM
S. aureus RN4220 = assay: growth inhibition call (relative growth <= 0.2); conditions: 50 µM

Row | Compound | cytotoxicity call (HSkMC) | cytotoxicity call (HepG2) | growth inhibition call (S. aureus RN4220)
1 | O=C(C[C@H]1C[C@@H]2c3cc(NS(=O)(=O)c4ccc(F)cc4)ccc3O[C@@H]2[C@@H](CO)O1)NCCc1ccccc1 | inactive | inactive | inactive
2 | C[C@H](CO)N1C[C@H](C)[C@@H](CN(C)CC2CC2)Oc2ccc(NS(=O)(=O)c3ccc(F)cc3)cc2CC1=O | inactive | inactive | inactive
3 | COCCOC(=O)N1C(=O)[C@@]2(c3cc(C#CC4(O)CCCCCC4)ccc31)[C@H](C(=O)N1CCCCCCC1)[C@H]1C(=O)O[C@H](c3ccccc3)[C@H](c3ccccc3)N1[C@@H]2c1ccc(OCCO)cc1 | inactive | active | inactive
4 | C[C@@H]1CN([C@@H](C)CO)C(=O)c2cc(NC(=O)Nc3ccccc3)ccc2O[C@@H](C)CCCCO[C@H]1CN(C)Cc1ccc2c(c1)OCO2 | inactive | inactive | inactive
5 | O=C(C[C@H]1CC[C@H]2[C@@H](COC[C@H](O)CN2S(=O)(=O)c2ccc(F)cc2)O1)NCc1ccncn1 | inactive | inactive | inactive
6 | Nc1cccc(=O)[nH]1 | inactive | inactive | inactive
7 | C[C@H](CO)N1C[C@H](C)[C@@H](CN(C)C(=O)NC2CCCCC2)OCc2ccccc2-c2c(n(C)c3ccccc23)C1=O | inactive | inactive | inactive
8 | C[C@@H]1CN([C@@H](C)CO)C(=O)c2cc(NC(=O)CCCCCC(=O)Nc3ccccc3N)ccc2O[C@@H](C)CCCCO[C@@H]1CN(C)S(=O)(=O)c1ccc(Cl)cc1 | inactive | inactive | inactive
9 | C[C@@H]1CN([C@@H](C)CO)C(=O)c2cc(NS(=O)(=O)c3ccc(F)cc3)ccc2O[C@H]1CN(C)CC1CC1 | inactive | inactive | inactive
10 | COc1cc(O)cc(OC)c1OC | inactive | inactive | inactive
11 | CCCNC(=O)N1C[C@@H](O)COC[C@@H]2O[C@H](CC(=O)N3CCOCC3)CC[C@H]21 | inactive | inactive | inactive
12 | CC(C)NC(=O)Nc1cccc2c1O[C@@H](CN(C)C(=O)Nc1ccc3c(c1)OCO3)[C@H](C)CN([C@H](C)CO)C2=O | inactive | inactive | inactive
13 | COc1ccc(NC(=O)N(C)C[C@H]2OCCCC[C@@H](C)Oc3ccc(NC(=O)Nc4cccc5ccccc45)cc3C(=O)N([C@@H](C)CO)C[C@H]2C)cc1 | inactive | inactive | inactive
14 | CO[C@@H]1CN(C)C(=O)c2cc(NS(C)(=O)=O)ccc2OC[C@@H](C)N(C(=O)C2CCOCC2)C[C@@H]1C | inactive | inactive | inactive
15 | C[C@@H]1CCCCO[C@H](CN(C)S(=O)(=O)c2cccs2)[C@H](C)CN([C@@H](C)CO)C(=O)c2cc(NC(=O)Nc3cccc4ccccc34)ccc2O1 | inactive | inactive | inactive
16 | NCCCN | inactive | inactive | inactive
17 | Cc1noc(C)c1NC(=O)Nc1ccc2c(c1)C(=O)N([C@@H](C)CO)C[C@@H](C)[C@H](CN(C)S(=O)(=O)c1ccccc1)O2 | inactive | inactive | inactive
18 | C[C@@H]1CN([C@@H](C)CO)C(=O)c2c(c3ccccc3n2C)-c2ccccc2CO[C@H]1CN(C)S(=O)(=O)c1ccc(Cl)cc1 | inactive | active | inactive
19 | C[C@@H]1CN([C@H](C)CO)C(=O)c2cc(NS(=O)(=O)c3ccc(F)cc3)ccc2O[C@@H]1CN(C)S(=O)(=O)c1cccs1 | inactive | inactive | inactive

Row | Compound | cytotoxicity call (HSkMC) | cytotoxicity call (HepG2) | growth inhibition call (S. aureus RN4220)
20 | COc1ccc(NC(=O)Nc2cccc3c2O[C@@H](CN(C)Cc2ccc(C(=O)Nc4ccccc4N)cc2)[C@H](C)CN([C@@H](C)CO)C3=O)cc1 | inactive | inactive | inactive
21 | COCCNC(=O)C[C@@H]1C[C@H]2c3cc(NC(=O)Nc4ccc(C(F)(F)F)cc4)ccc3O[C@H]2[C@@H](CO)O1 | inactive | inactive | inactive
22 | O=C(CN1CCOCC1)NCC[C@@H]1CC[C@H](NS(=O)(=O)c2ccc(F)cc2)[C@H](CO)O1 | inactive | inactive | inactive
23 | Cc1ccc(S(=O)(=O)N(C)C[C@H]2Oc3ccc(NS(=O)(=O)c4ccccc4)cc3CC(=O)N([C@@H](C)CO)C[C@@H]2C)cc1 | inactive | inactive | inactive
24 | CC(C)[C@@H](N)c1ncnn1C | inactive | inactive | inactive
25 | C[C@@H]1CCCCO[C@@H](CN(C)S(=O)(=O)c2cccs2)[C@@H](C)CN([C@H](C)CO)C(=O)c2cc(NC(=O)Nc3ccc(C(F)(F)F)cc3)ccc2O1 | inactive | inactive | inactive
26 | C[C@@H]1CCCCO[C@@H](CN(C)Cc2ccc(C(=O)O)cc2)[C@H](C)CN([C@H](C)CO)C(=O)c2cc(NC(=O)CCC(F)(F)F)ccc2O1 | inactive | active | inactive
27 | C[C@@H]1CN([C@H](C)CO)C(=O)c2cccc(NS(=O)(=O)c3ccc(F)cc3)c2O[C@@H]1CN(C)S(=O)(=O)c1ccccc1 | inactive | inactive | inactive
28 | O=C(NCc1ccco1)c1nc2ncccn2n1 | inactive | inactive | inactive
29 | Cc1ccc(S(=O)(=O)Nc2cccc3c2O[C@@H](CN(C)C(=O)NC(C)C)[C@@H](C)CN([C@H](C)CO)C3=O)cc1 | inactive | inactive | inactive
30 | CN1CCC(N(C)C(=O)COc2ccc(S(=O)(=O)N3CCOCC3)cc2)CC1 | inactive | inactive | inactive
31 | COc1ccc(S(=O)(=O)Nc2ccc3c(c2)C(=O)N([C@@H](C)CO)C[C@H](C)[C@H](CN(C)S(=O)(=O)c2ccccc2)O3)cc1 | inactive | inactive | inactive
32 | C[C@H]1CN([C@@H](C)CO)C(=O)Cc2cc(NC(=O)CCCCCC(=O)Nc3ccccc3N)ccc2O[C@@H]1CN(C)S(=O)(=O)c1cn(C)cn1 | inactive | inactive | inactive
33 | CCCCCC[C@@H](O)CC=CCCCCCCCC(=O)O | inactive | inactive | inactive
34 | COc1ccc(CNC(=S)NCCO)cc1 | inactive | inactive | inactive
35 | C[C@@H]1CN([C@H](C)CO)C(=O)c2cc(NS(=O)(=O)c3ccc(Cl)cc3)ccc2O[C@@H](C)CCCCO[C@@H]1CN(C)Cc1ccc2c(c1)OCO2 | inactive | inactive | inactive
36 | O=C(O)c1ccc[n+]([O-])c1 | inactive | inactive | inactive
37 | O=C(C[C@@H]1C[C@H]2c3cc(NS(=O)(=O)c4ccc(F)cc4)ccc3O[C@H]2[C@H](CO)O1)NCc1ccccn1 | inactive | inactive | inactive
38 | COc1ccccc1S(=O)(=O)N[C@H]1C=C[C@H](CC(=O)N2CCOCC2)O[C@H]1CO | inactive | inactive | inactive

Row | Compound | cytotoxicity call (HSkMC) | cytotoxicity call (HepG2) | growth inhibition call (S. aureus RN4220)
39 | O=C(N[C@@H](c1ccc2c(c1)OCO2)c1ccccn1)C1CCN(CCOc2ccc(Cl)cc2Cl)CC1 | inactive | inactive | inactive
40 | C[C@H]1CN([C@@H](C)CO)C(=O)Cc2cc(NC(=O)Cc3cn(C)c4ccccc34)ccc2O[C@H]1CN(C)Cc1ccc(C(F)(F)F)cc1 | inactive | active | inactive
41 | C[C@H]1CN([C@@H](C)CO)C(=O)Cc2cc(NC(=O)Nc3ccc(C(F)(F)F)cc3)ccc2O[C@H]1CN(C)Cc1ccc(Cl)c(Cl)c1 | active | active | inactive
42 | CO[C@@H]1CN(C)C(=O)c2cc(NC(=O)NC(C)C)ccc2OC[C@H](C)N(Cc2ccc(-c3ccccn3)cc2)C[C@H]1C | inactive | inactive | inactive
43 | C[C@H](CO)N1C[C@H](C)[C@H](CN(C)C(=O)Nc2cccc3ccccc23)Oc2ccc(NC(=O)Nc3ccc(F)cc3)cc2C1=O | inactive | inactive | inactive
44 | CC=Cc1ccc2n(c1=O)C[C@@H]1[C@@H](CO)[C@H](C(=O)NCC)[C@H]2N1S(=O)(=O)c1cn(C)cn1 | inactive | inactive | inactive
45 | O=C(N/N=C/c1ccc(B(O)O)cc1)c1ccccc1O | inactive | inactive | inactive
46 | C[C@H](CO)N1C[C@H](C)[C@@H](CN(C)CC2CC2)Oc2ccc(NS(=O)(=O)c3cccs3)cc2C1=O | inactive | inactive | inactive
47 | C[C@H]1CN([C@@H](C)CO)C(=O)c2cc(NS(=O)(=O)c3ccc(F)cc3)ccc2O[C@H]1CN(C)Cc1ccc(Oc2ccccc2)cc1 | inactive | inactive | inactive
48 | NCCCC(N)CC(=O)NC1CNC(=O)C(C2CC(O)NC(N)=N2)NC(=O)C(=CNC(N)=O)NC(=O)C(CO)NC(=O)C(CO)NC1=O.O=S(=O)(O)O (stereo not drawn) | inactive | inactive | inactive
49 | CCCNC(=O)N1C[C@@H](O)COC[C@@H]2O[C@H](CC(=O)N3CCN(C)CC3)CC[C@H]21 | inactive | inactive | inactive
50 | C[C@H](CO)N1C[C@H](C)[C@@H](CN(C)Cc2ccc(F)cc2)Oc2cc(C#CCN(C)C)ccc2S1(=O)=O | inactive | inactive | inactive
51 | Oc1ccc(C2(c3ccccc3F)CCC(F)(F)CC2)cc1 | inactive | inactive | active
52 | Cc1noc(C)c1S(=O)(=O)N(C)C[C@H]1Oc2ccc(NS(=O)(=O)c3cccs3)cc2CC(=O)N([C@H](C)CO)C[C@H]1C | inactive | inactive | inactive
53 | CC(C)NC(=O)N(C)C[C@@H]1Oc2ccc(NS(=O)(=O)c3ccc(F)cc3)cc2CC(=O)N([C@@H](C)CO)C[C@@H]1C | inactive | inactive | inactive
54 | C=C(CO)C(=O)O[C@H]1C[C@@]2(C)OC(=O)/C(=C/C)[C@]2(O)CC[C@@]2(C)CC(=O)[C@]1(C(=C)C(=O)OC)O2 | inactive | inactive | inactive
55 | C[C@H]1CN([C@@H](C)CO)C(=O)c2cccc(NC(=O)Nc3ccc(F)cc3)c2O[C@H]1CN(C)C(=O)Nc1cccc2ccccc12 | inactive | inactive | inactive
56 | C[C@@H]1CN([C@H](C)CO)C(=O)c2cccc(NS(=O)(=O)c3cn(C)cn3)c2O[C@@H]1CN(C)S(=O)(=O)c1cccs1 | inactive | inactive | inactive
